# Reference: PubChem BioAssay AID504339 (National Center for Advancing Translational Sciences (NCATS), 2011)
# Hit rate of the full screen: of about 390,000 compounds, about 17,000 (4.4%) were called active. The shares of active, inactive and inconclusive entries below differ from those in the screen. Calls come from the whole dose curve; as a rule, active = well fitted inhibition curve with a large enough effect; inconclusive = small, poorly fitted or top-dose-only effect; inactive = no such curve, though single readings can be large or run the other way. Potencies of inconclusive entries are doubtful fits and often do not repeat.
# Target: Lysine-specific demethylase 4A (Homo sapiens) (UniProt O75164)
# Sequence of UniProt O75164 (O75164 whole entry, looked up, the tested form may be a part): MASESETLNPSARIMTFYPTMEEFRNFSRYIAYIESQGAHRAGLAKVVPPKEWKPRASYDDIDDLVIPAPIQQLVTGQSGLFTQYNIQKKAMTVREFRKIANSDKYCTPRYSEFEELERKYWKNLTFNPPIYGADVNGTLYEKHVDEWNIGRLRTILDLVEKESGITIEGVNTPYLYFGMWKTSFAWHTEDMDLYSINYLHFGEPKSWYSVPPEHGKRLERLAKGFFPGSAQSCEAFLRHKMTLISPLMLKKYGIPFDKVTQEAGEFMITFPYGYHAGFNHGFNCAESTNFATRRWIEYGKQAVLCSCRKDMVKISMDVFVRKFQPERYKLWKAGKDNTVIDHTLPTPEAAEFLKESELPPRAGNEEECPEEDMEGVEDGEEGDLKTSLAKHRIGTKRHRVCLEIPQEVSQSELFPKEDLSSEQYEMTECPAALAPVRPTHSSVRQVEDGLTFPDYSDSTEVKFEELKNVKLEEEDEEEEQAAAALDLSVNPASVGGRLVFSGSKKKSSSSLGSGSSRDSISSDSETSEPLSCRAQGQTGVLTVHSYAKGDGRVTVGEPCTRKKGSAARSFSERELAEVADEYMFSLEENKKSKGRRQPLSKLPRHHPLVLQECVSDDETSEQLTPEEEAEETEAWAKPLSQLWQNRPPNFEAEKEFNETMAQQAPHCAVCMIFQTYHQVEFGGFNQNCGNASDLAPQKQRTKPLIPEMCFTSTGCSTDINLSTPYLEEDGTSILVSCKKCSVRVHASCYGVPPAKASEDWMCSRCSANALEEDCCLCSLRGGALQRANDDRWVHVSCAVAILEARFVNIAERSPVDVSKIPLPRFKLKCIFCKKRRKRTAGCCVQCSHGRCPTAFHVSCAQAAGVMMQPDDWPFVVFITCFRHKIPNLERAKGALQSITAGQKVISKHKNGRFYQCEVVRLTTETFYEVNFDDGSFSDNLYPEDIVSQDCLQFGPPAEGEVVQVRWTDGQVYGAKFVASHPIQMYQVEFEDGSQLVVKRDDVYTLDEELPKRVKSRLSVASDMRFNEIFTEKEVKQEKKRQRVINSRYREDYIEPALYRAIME
# Assay: qHTS Assay for Inhibitors of JMJD2A-Tudor Domain; note: nearly all actives have a fitted effect of over 50% in size
# Details: AlphaScreen JMJD2A-Tudor / H3K4me3 peptide binding; activity change, negative = inhibition: at 114 µM (top of the series)
# % is set by controls: 0 for no effect and ±100 for the full control effect; potency is the fitted concentration of half-maximal effect; tags give direction and shape of the fitted curve.
Compound,Potency,"activity change, negative = inhibition"
Cc1ccc(/C=N/n2c(C)n[nH]c2=S)o1,active: 5.01 µM,
CCOc1cc(C(=O)NC(=S)Nn2cnnc2)cc(OCC)c1OCC,"inconclusive: 39.8 µM [inhibitor, single point]",
N#CCCCN1C(=O)C(O)(CC(=O)c2ccc3c(c2)OCCO3)c2ccccc21 (stereo not drawn),,inactive: -16.8%
Cn1nnc(NC(=S)NC(=O)/C=C/c2ccco2)n1,"inconclusive: 7.08 µM [inhibitor, full curve, poor fit]",
S=C(Nc1ccccc1)Nc1nc2ccccc2n1CCOc1ccccc1,active: 44.7 µM,
COc1ccc(/C=C2\SC(=O)NC2=S)cc1OC,active: 79.4 µM,
Cc1cccc(-n2c(C)cc(/C=N\NC(=O)c3cccs3)c2C)c1,"inconclusive: 39.8 µM [inhibitor, partial curve]",
O=C(Nc1ccccc1)c1sccc1Oc1ccc([N+](=O)[O-])cc1F,"inconclusive: 39.8 µM [inhibitor, partial curve]",
NC(=S)NC(c1ccccc1)c1ccncc1 (stereo not drawn),"inconclusive: 79.4 µM [inhibitor, partial curve]",
CCn1c(/C=N/NC(=O)c2ccc(OC)cc2)nc2ccccc21,"inconclusive: 35.5 µM [inhibitor, single point]",
Cc1ccc(S(=O)(=O)Nc2ccc(Nc3ccccc3)cc2)cc1,"inconclusive: 56.2 µM [inhibitor, partial curve]",
COc1ccc(S(=O)(=O)N(C)C[C@H]2Oc3ccc(NC(=O)C4CC4)cc3C(=O)N([C@H](C)CO)C[C@@H]2C)cc1,"inconclusive: 100 µM [inhibitor, partial curve]",
CCOc1ccc(NC(=O)CN(C)C(=O)CN2C(=O)c3ccc([N+](=O)[O-])cc3C2=O)cc1OCC,,inactive: -11%
C(=N\N1CCN(Cc2ccccc2)CC1)/c1cccs1,"inconclusive: 28.2 µM [inhibitor, partial curve]",
C/C(=N\NC(=S)Nc1ccc(F)cc1)c1ccc2c(c1)OCCO2,active: 31.6 µM,
COc1ccc(-c2nnc3ccc(SCC(=O)NCC4CCCO4)nn23)cc1 (stereo not drawn),,inactive: -11.9%
CC1CCN(S(=O)(=O)c2ccc3c(c2)N(C)C(=O)CC(=O)N3C)CC1,inactive,
COc1ccc(C2/C(=C(/O)c3ccccc3)C(=O)C(=O)N2C)cc1 (stereo not drawn),"inconclusive: 17.8 µM [inhibitor, full curve]",
CC(=O)NC1CCN(CC(=O)Nc2nccs2)CC1,active: 31.6 µM,
O=C(O)C(S)C(S)C(=O)O (stereo not drawn),active: 50.1 µM,
CCOc1ccccc1NC(=O)CN1C(=O)CC(c2ccc(C)c(C)c2)=Nc2ccccc21,,inactive: -24.3%
C[C@H](NC(=O)C1CC(=O)N(c2ccc3c(c2)OCO3)C1)C(=O)NC1CCCCC1 (stereo partly drawn),"inconclusive: 20 µM [inhibitor, partial curve]",
Cc1ccc(C)c(N2CCN(CCCNC(=O)c3cnn(-c4cccc(Cl)c4)c3C3CCN(C(=O)OC(C)(C)C)CC3)CC2)c1,"inconclusive: 50.1 µM [inhibitor, partial curve]",

Compound,Potency,"activity change, negative = inhibition"
CCn1nc(C(=O)O)c(=O)c2cc3c(cc21)OCO3,"inconclusive: 89.1 µM [inhibitor, single point]",
O=S1(=O)N=C(Oc2ccc(C(F)(F)F)cc2)c2ccccc21,"inconclusive: 70.8 µM [inhibitor, partial curve, poor fit]",
CCC(C)NC(=O)c1cc2cc3ccc(OC)cc3nc2s1 (stereo not drawn),"inconclusive: 79.4 µM [inhibitor, partial curve]",
Cc1cc(C)cc(N2C(=O)CC(Sc3ccccc3C(=O)O)C2=O)c1 (stereo not drawn),"inconclusive: 89.1 µM [inhibitor, single point]",
COc1ccc(C2c3ccc(OCc4ccccc4)cc3Oc3ncn(CCN4CCOCC4)c(=N)c32)cc1OC (stereo not drawn),"inconclusive: 44.7 µM [inhibitor, partial curve]",
Cc1ccsc1C1NC(=O)c2c(sc3c2CCCC3)N1 (stereo not drawn),"inconclusive: 89.1 µM [inhibitor, single point]",
Cc1ccc(-n2c(C)c([N+](=O)[O-])c3ccc(O)c(CN(C)C)c32)cc1,,inactive: -18.2%
O=C(c1cnccn1)N1CCc2c([nH]c3ccccc23)C1c1cccc(Cl)c1 (stereo not drawn),"inconclusive: 25.1 µM [inhibitor, partial curve]",
O=C(O)/C(=C\c1ccco1)NC(=O)c1ccco1,,inactive: -12.6%
Cc1csc(N2CCCC2c2nc3cc(Cl)c(N4CCCCC4)cc3n2CCCO)n1 (stereo not drawn),"inconclusive: 89.1 µM [inhibitor, partial curve, poor fit]",
CCN(CC)CCOC(=O)c1ccc(N/C=C(/C#N)c2nc(-c3cc4ccccc4oc3=O)cs2)cc1,"inconclusive: 100 µM [inhibitor, single point]",
Cc1c(CN(C)C)c2c(n1Cc1ccccc1)C(=O)c1ccc(Br)cc1-2,active: 39.8 µM,
Cc1ccn2c(Nc3ccccc3)c(-c3c[nH]c4ccccc34)nc2c1,active: 22.4 µM,
COCCN1C(=O)C(O)=C(C(C)=O)C1c1ccc(OC)c(OC)c1 (stereo not drawn),active: 15.8 µM,
O=C(NN=C(c1ccccc1)c1ccccn1)c1ccccc1,"inconclusive: 89.1 µM [inhibitor, partial curve]",
CC1(c2ccccc2)NC(=O)N(CC(=O)Nc2ccccc2N2CCCCC2)C1=O (stereo not drawn),,inactive: -9.59%
Cc1ccc(-n2c(N)c(C(=O)N3CCN(C)CC3)sc2=S)cc1,"inconclusive: 89.1 µM [inhibitor, partial curve]",
CC1CCN(C(=O)C(=O)Nc2sc3c(c2C(N)=O)CC(C)(C)OC3)CC1,,inactive: -12.8%
CC(=O)Nc1ccc(NC(=O)c2ccc3c(c2)CCN3S(=O)(=O)c2ccc(C)cc2)cc1,"inconclusive: 89.1 µM [inhibitor, partial curve, poor fit]",
COc1cccc(=O)c2c(C)n(CC(=O)c3ccccc3)c(C)c12,,inactive: -34.5%
COc1ccc(CCNc2oc(COc3ccccc3)nc2C#N)cc1,"inconclusive: 20 µM [inhibitor, full curve]",
Cc1cccc(N2C(=O)C(O)=C(C(=O)c3cccs3)C2c2ccc(Cl)cc2)n1 (stereo not drawn),"inconclusive: 79.4 µM [inhibitor, partial curve, poor fit]",
COc1ccccc1Nc1nn2c(=O)c3ccc(C(=O)NCCc4ccccc4)cc3nc2s1,,inactive: -26.6%

Compound,Potency,"activity change, negative = inhibition"
COc1ccc(-c2c3c([nH]c(=S)c2C#N)CCC3)cc1,active: 44.7 µM,
COc1ccc(C(C)=O)cc1CSc1nc(Nc2ccc(F)c(F)c2)c2ccccc2n1,"inconclusive: 79.4 µM [inhibitor, partial curve]",
Cc1ccc(-c2cc(C(F)(F)F)n3ncc(C(=O)NCc4ccco4)c3n2)cc1,"inconclusive: 56.2 µM [inhibitor, partial curve, poor fit]",
CCc1ccc(/C=C2\SC(=S)N(CCCC(=O)Nc3ccccn3)C2=O)cc1,"inconclusive: 14.1 µM [inhibitor, full curve]",
Cc1cc(C(=O)OCC(=O)NCc2ccco2)c(C)n1-c1ccc(F)cc1,"inconclusive: 79.4 µM [inhibitor, partial curve]",
CCOC(=O)c1c(C)[nH]c(C(=O)CSc2ccccc2)c1C,,inactive: -2.8%
COc1ccccc1C=NNc1nc(C)cc(=O)[nH]1,"inconclusive: 25.1 µM [inhibitor, single point]",
CC(C)(CNc1ccc(S(=O)(=O)C(F)(F)F)cc1[N+](=O)[O-])N1CCOCC1,"inconclusive: 31.6 µM [inhibitor, full curve]",
CC(=O)Nc1cccc(-c2nnc(SCC(=O)c3cc([N+](=O)[O-])ccc3Cl)o2)c1,,inactive: -13.1%
OCCn1c(CSc2nnc(-c3ccco3)n2-c2ccccc2)nc2ccc(Cl)cc21,"inconclusive: 89.1 µM [inhibitor, partial curve]",
Cn1cccc1C(=O)OCC(=O)c1c[nH]c2ccccc12,"inconclusive: 56.2 µM [inhibitor, partial curve]",
COc1cccc(N2CCN(C(=O)c3ccc4nc(N5CCC(C)CC5)sc4c3)CC2)c1,"inconclusive: 39.8 µM [inhibitor, partial curve]",
Cc1ccc(S(=O)(=O)NN2C(=O)/C(=C/c3cccs3)SC2=S)cc1,"inconclusive: 50.1 µM [inhibitor, partial curve]",
O=CNn1cnc2c(oc3nc(-c4ccccc4)cc(-c4ccco4)c32)c1=O,"inconclusive: 89.1 µM [inhibitor, single point]",
Nc1ccc(-n2cc(-c3ccccc3)[nH]c2=S)cc1,"inconclusive: 12.6 µM [inhibitor, full curve]",
O=C(O)C1OC(Oc2c(-c3ccc(O)c(O)c3)oc3cc(O)cc(O)c3c2=O)C(O)C(O)C1O (stereo not drawn),active: 31.6 µM,
COc1ccc(-c2nn(-c3ccccc3)cc2/C=N/NS(=O)(=O)c2ccccc2)cc1,"inconclusive: 56.2 µM [inhibitor, single point]",
Fc1ccc(-n2cc(CNCCc3ccccn3)c(-c3ccccc3Cl)n2)cc1,"inconclusive: 28.2 µM [inhibitor, full curve, poor fit]",
O=C(COC(=O)c1n[nH]c2ccccc12)Nc1ccc(Cl)cc1[N+](=O)[O-],"inconclusive: 15.8 µM [inhibitor, full curve, poor fit]",
CC(C)Cn1c(O)c(N=NC(=O)c2cccc(S(=O)(=O)N3CCCCC3)c2)c2ccccc21,"inconclusive: 7.08 µM [inhibitor, full curve, poor fit]",
CCOc1cc(S(=O)(=O)N(CC)CC)ccc1F,,inactive: 12.2%
CC1CCCCN1C(=O)c1ccc(OC2CCN(S(=O)(=O)N(C)C)CC2)cc1 (stereo not drawn),,inactive: -5.52%
